According to PubChem BioAssay AID504332 (National Center for Advancing Translational Sciences (NCATS), 2011):
Values joined by “and” are separate entries in the source; they are usually repeats but may differ in a detail not shown here. Equal values may be shown once. Out of some 350,000 compounds screened, about 31,000 (8.9%) were called active. The shares of active, inactive and inconclusive entries below differ from those in the screen. Calls come from the whole dose curve; as a rule, active = well fitted inhibition curve with a large enough effect; inconclusive = small, poorly fitted or top-dose-only effect; inactive = no such curve, though single readings can be large or run the other way. A potency beside an inconclusive call is a rough fit, not a confirmed value.

biological target: Histone-lysine N-methyltransferase EHMT2 (Homo sapiens) (UniProt Q96KQ7); assay: qHTS Assay for Inhibitors of Histone Lysine Methyltransferase G9a; conditions: G9a H3K9 monomethylation, AlphaScreen, 2 h; activity, negative = inhibition: at 59 µM (top of the series) unless noted; note: nearly all actives have a fitted effect of over 75% in size
Sequence of UniProt Q96KQ7 (Q96KQ7 whole entry, looked up): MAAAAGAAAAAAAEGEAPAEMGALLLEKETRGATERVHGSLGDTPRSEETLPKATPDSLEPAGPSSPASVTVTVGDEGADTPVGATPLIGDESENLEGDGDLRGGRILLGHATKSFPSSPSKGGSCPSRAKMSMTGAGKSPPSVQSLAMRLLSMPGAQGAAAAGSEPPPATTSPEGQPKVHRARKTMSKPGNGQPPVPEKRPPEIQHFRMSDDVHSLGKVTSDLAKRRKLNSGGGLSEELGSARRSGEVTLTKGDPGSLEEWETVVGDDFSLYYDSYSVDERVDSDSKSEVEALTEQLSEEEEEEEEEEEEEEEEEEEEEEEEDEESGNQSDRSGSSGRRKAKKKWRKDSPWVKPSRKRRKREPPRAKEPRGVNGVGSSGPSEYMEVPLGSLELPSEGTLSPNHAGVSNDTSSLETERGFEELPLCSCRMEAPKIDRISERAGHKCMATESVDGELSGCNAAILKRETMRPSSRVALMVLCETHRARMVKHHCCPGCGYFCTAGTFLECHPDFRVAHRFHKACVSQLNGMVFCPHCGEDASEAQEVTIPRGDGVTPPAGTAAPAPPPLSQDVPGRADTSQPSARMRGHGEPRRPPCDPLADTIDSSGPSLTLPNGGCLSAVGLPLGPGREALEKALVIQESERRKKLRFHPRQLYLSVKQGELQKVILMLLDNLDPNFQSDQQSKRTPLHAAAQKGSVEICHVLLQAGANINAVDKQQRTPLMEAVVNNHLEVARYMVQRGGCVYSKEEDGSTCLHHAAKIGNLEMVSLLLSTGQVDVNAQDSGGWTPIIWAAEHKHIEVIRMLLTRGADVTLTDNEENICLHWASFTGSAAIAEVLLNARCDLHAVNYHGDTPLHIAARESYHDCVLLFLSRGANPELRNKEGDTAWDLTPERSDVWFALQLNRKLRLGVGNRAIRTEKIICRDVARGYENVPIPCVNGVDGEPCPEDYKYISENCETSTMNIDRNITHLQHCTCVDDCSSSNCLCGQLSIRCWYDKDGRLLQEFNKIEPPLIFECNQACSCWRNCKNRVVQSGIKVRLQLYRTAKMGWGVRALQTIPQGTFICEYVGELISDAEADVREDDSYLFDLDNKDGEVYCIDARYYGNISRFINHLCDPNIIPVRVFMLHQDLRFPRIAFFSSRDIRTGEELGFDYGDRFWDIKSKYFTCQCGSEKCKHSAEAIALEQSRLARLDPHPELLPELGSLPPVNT
Method in brief: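 Signal arises when biotinylated H3K9 peptide, once monomethylated, bridges streptavidin donor and antibody-captured acceptor beads. Enzyme at 20 nM was preincubated 15 min with test compounds; peptide 500 nM and SAM 20 uM then reacted for 2 h.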
% is set by controls: 0 for no effect and ±100 for the full control effect; potency is the fitted concentration of half-maximal effect; tags give direction and shape of the fitted curve.

Row | SMILES | Potency | activity, negative = inhibition
1 | Cc1nn(C2CCS(=O)(=O)C2)c2nc(C3CC3)cc(C(=O)Nc3ccc(C(N)=O)cc3)c12 (stereo not given) | inconclusive: 50.1 µM [inhibitor, partial curve, poor fit] | 
2 | COc1ccc(OC)c(CCNC(=O)c2ccc3c(c2)c(C)c(C)n3Cc2ccccc2)c1 | inconclusive: 12.6 µM [inhibitor, partial curve, poor fit] | 
3 | COc1cc(NC(=O)CN2C(=O)c3ccccc3Sc3ccc(C(=O)N4CCCC4)cc32)cc(OC)c1 | inconclusive: 31.6 µM [inhibitor, partial curve, poor fit] | 
4 | O=C(Cc1ccccc1)Nc1ccc(C(=O)NCC2COc3ccccc3O2)cc1 (stereo not given) | inconclusive: 79.4 µM [inhibitor, single point] | 
5 | CC(=O)c1ccc(NC(=O)C(C)Nc2ccc(Cl)cc2)cc1 (stereo not given) | inconclusive: 17.8 µM [inhibitor, full curve] | 
6 | Cc1ccc(-n2cccc2C(=S)N=P(N(C)C)(N(C)C)N(C)C)cc1 | inconclusive: 10 µM [inhibitor, partial curve, poor fit] | 
7 | Cc1ccc(-n2nnc(-c3nc(-c4cccs4)no3)c2N)cc1C | inconclusive: 35.5 µM [inhibitor, single point] | 
8 | Cc1ccc(Cl)cc1NC(=O)CCS(=O)(=O)c1cccc2nonc12 | inconclusive: 89.1 µM [inhibitor, single point] | 
9 | COc1ccc(-c2nc(CSc3nncn4c3cc3oc(C)cc34)c(C)o2)cc1 |  | inactive: -9.2%
10 | CC(=O)N1CCN(Cc2nc3cc(Cl)ccc3c(=O)[nH]2)CC1 | inconclusive: 50.1 µM [inhibitor, partial curve, poor fit] | 
11 | COc1ccc(CCNC(=O)C(=O)NCC2CCCN2S(=O)(=O)c2cccs2)cc1OC (stereo not given) | inconclusive: 89.1 µM [inhibitor, partial curve, poor fit] | 
12 | Cn1c(=O)[nH]c(=O)c2c1nc(Br)n2C/C=N/NC(N)=S |  | inactive: 7% [at 102 µM]
13 | COc1ccc(-c2cc(C3CC3)nc(N)c2C#N)cc1 | inconclusive: 39.8 µM [inhibitor, single point] | 
14 | COC(=O)c1cc(NC2c3ccccc3C(=O)N2c2cccnc2)cc(C(=O)OC)c1 (stereo not given) | inconclusive: 25.1 µM [inhibitor, single point] | 
15 | O=C(O)c1ccc(/C=C/c2nc3sc4c(c3c(=O)[nH]2)CCC4)cc1 | inconclusive: 89.1 µM [inhibitor, partial curve, poor fit] | 
16 | CC(C)c1ccc(CNc2ccc3c(c2)ncn3C)cc1 | inconclusive: 10 µM [inhibitor, partial curve, poor fit] | 
17 | O=C1C2C3C=CC(C4CC34)C2C(=O)N1/N=C/c1ccc(-c2ccc(F)cc2[N+](=O)[O-])o1 (stereo not given) | active: 8.91 µM | 
18 | COc1ccc(/C(=N\Nc2ccccc2C(=O)O)c2ccccc2)cc1 | active: 35.5 µM | 
19 | Cc1ccc(/C=C2/NC(=O)N(Cc3ccccc3F)C2=O)o1 | active: 31.6 µM | 
20 | Cc1cc(N2CCN(S(=O)(=O)Cc3ccccc3)CC2)n2ncnc2n1 | inconclusive: 20 µM [inhibitor, partial curve, poor fit] | 

Row | SMILES | Potency | activity, negative = inhibition
21 | O=P(/C(=N/O)Sc1ccccc1)(N1CCOCC1)N1CCOCC1 |  | inconclusive: -51.3% [inhibitor] [at 0.0925 µM]
22 | CN(C)Cc1cc(C(C)(C)c2cc(CN(C)C)c(O)c(CN(C)C)c2)cc(CN(C)C)c1O | inconclusive: 20 µM [inhibitor, single point] | 
23 | Cc1cc(C)cc(C(=O)Nc2ccc(-c3nc4ncccc4o3)cc2)c1 | inconclusive: 35.5 µM [inhibitor, single point] | 
24 | CCOc1ccc(N2CC(c3nc4ccccc4n3Cc3cccc(Cl)c3)CC2=O)cc1 (stereo not given) | inconclusive: 28.2 µM [inhibitor, partial curve, poor fit] | 
25 | Cc1nn(CCCC(=O)NCc2ccc(F)cc2)c(=O)c2c1sc1ccccc12 | inconclusive: 39.8 µM [inhibitor, partial curve, poor fit] | 
26 | CCOCC(=O)Nc1ccccc1C(=O)N1CCOCC1 | inconclusive: 35.5 µM [inhibitor, single point] | 
27 | CCOCCCNC(=O)C(c1ccccc1)N(Cc1cccs1)C(=O)CNC(C)=O (stereo not given) | inconclusive: 79.4 µM [inhibitor, single point] | 
28 | Cc1ccc(-n2ncc(C(=O)N3CCN(c4cccc(C)c4)C(C)C3)c2C2CCN(C(=O)OC(C)(C)C)CC2)cc1 (stereo not given) | inconclusive: 15.8 µM [inhibitor, partial curve, poor fit] | 
29 | O=C(O)CCn1nnc(-c2cccs2)n1 | inconclusive: 79.4 µM [inhibitor, single point] | 
30 | Cc1ccc(S(=O)(=O)Cc2ccc(C(=O)NCCCN3CCCC3=O)o2)cc1 | inconclusive: 22.4 µM [inhibitor, partial curve, poor fit] | 
31 | Cc1ccc(C2C(C(=O)O)c3ccccc3C(=O)N2C)c(C)c1 (stereo not given) |  | inactive: 0.61% [at 102 µM]
32 | COc1ccccc1NC(=O)Cn1nc(-c2ccc3c(c2)OCCO3)ccc1=O | inconclusive: 0.282 µM [inhibitor, partial curve, poor fit] | 
33 | O=C(O)CN(c1ccccc1)C1SC(=O)NC1=O (stereo not given) | inconclusive: 39.8 µM [inhibitor, single point] | 
34 | CCOC(=O)N1CCc2c(sc(NC(=O)c3ccc(S(=O)(=O)N4CCCC4)cc3)c2C#N)C1 | inconclusive: 39.8 µM [inhibitor, single point] | 
35 | Cc1c(NC(=O)c2cc(-c3ccc(Cl)c(Cl)c3)on2)c(=O)n(-c2ccccc2)n1C | inconclusive: 22.4 µM [inhibitor, partial curve, poor fit] and inconclusive: 79.4 µM [inhibitor, single point] | 
36 | COc1ccc(C2=C/C(=C/c3cccnc3)C(=O)O2)cc1OC | inconclusive: 39.8 µM [inhibitor, single point] | 
37 | CC1(C)CC(Cc2nc(=S)[nH][nH]2)C(=O)O1 (stereo not given) | active: 1.78 µM | 
38 | C/C(=N\NC(=O)c1cccc(Br)c1)c1cccnc1 | inconclusive: 7.94 µM [inhibitor, partial curve, poor fit] | 
39 | COc1ccccc1CN1C[C@@H]2C[C@@H](c3ccccc3OC)N3CCC[C@@]23C1=O | inconclusive: 4.47 µM [inhibitor, single point] | 
40 | CC1(N2CCCCC2)CC2(O)C(=[N+]1[O-])CCC/C2=N\O (stereo not given) |  | inconclusive: -80.7% [inhibitor]

Row | SMILES | Potency | activity, negative = inhibition
41 | COCCCNC(=S)NNC(=S)NCCCOC | active: 8.91 µM | 
42 | COc1c(C)cc(S(=O)(=O)NCCc2c(C)[nH]c3ccccc23)c(C)c1C | inconclusive: 39.8 µM [inhibitor, partial curve, poor fit] | 
43 | CCOC(=O)c1cc(-c2ccccc2)n(-c2cccc(C(=O)Nc3ccc(F)c(F)c3)c2)c1C | inconclusive: 25.1 µM [inhibitor, partial curve, poor fit] | 
44 | COc1cc(/C=N/NC(=O)c2cc(-c3ccccc3)nc3ccccc23)ccc1O | inconclusive: 15.8 µM [inhibitor, partial curve, poor fit] | 
45 | COc1ccc(NC(=O)CN2C(=O)NC3(CCCC3)C2=O)cc1Cl |  | inactive: -39.8% [at 102 µM]
46 | CCC1CCC(C(=O)NC(CCSC)C(=O)NCCN(CC(C)C)CC(C)C)CC1 (stereo not given) |  | inactive: -5.93%
47 | CCn1c(SCC(=O)Nc2cc(OC)c(OC)c(OC)c2)nnc1-c1cccs1 | inconclusive: 79.4 µM [inhibitor, partial curve, poor fit] | 
48 | CCOc1ccc(OCC(O)CN2CCN(S(=O)(=O)c3cccc(C(F)(F)F)c3)CC2)cc1 (stereo not given) | inconclusive: 89.1 µM [inhibitor, single point] | 
49 | O=C(COc1ccc([N+](=O)[O-])cc1)Nc1cccnc1 | inconclusive: 39.8 µM [inhibitor, partial curve] | 
50 | N=C1/C(=C/c2ccc(OCc3ccccc3)cc2)C(=O)N=C2SC(CC(=O)N3CCOCC3)=NN12 | inconclusive: 79.4 µM [inhibitor, partial curve, poor fit] | 
51 | COc1ccc(Nc2nc(NCc3ccco3)nc(N/N=C/c3ccc(O)cc3)n2)cc1 | inconclusive: 39.8 µM [inhibitor, single point] | 
52 | CCOC(=O)Cc1csc(NC(=O)c2ccoc2C)n1 | inconclusive: 39.8 µM [inhibitor, partial curve, poor fit] | 
53 | C=CCNc1scc(-c2ccccc2)[n+]1CC=C | inconclusive: 44.7 µM [inhibitor, partial curve] | 
54 | CCOc1ccc(-c2cc(NC(=O)Nc3cccc(C(C)=O)c3)c(C(=O)OC)s2)cc1 |  | inactive: 12.4%
55 | COc1ccc(/C(C)=N/Nc2nccnc2Cl)cc1 | inconclusive: 8.91 µM [inhibitor, single point] | 
56 | COc1ccc(C2=CC(=O)N(Nc3ccccc3)C2=O)cc1 | inconclusive: 39.8 µM [inhibitor, partial curve] | 
57 | CCOC(=O)CNC(c1ccccc1)c1cc(Br)ccc1NC(=O)CCN1CCOCC1 (stereo not given) | inconclusive: 15.8 µM [inhibitor, partial curve, poor fit] | 
58 | COc1ccccc1CCn1c(=O)c(-c2ccc(F)c(F)c2)nc2cncnc21 |  | inactive: -1.94% [at 0.501 µM]
59 | CCN(CC)c1nc(-c2nn[nH]n2)nc(N(CC)CC)n1 | inconclusive: 20 µM [inhibitor, partial curve, poor fit] | 
60 | COC(=O)c1[nH]c2ccc(C)cc2c1NC(=O)CN1CCCc2ccccc21 | inconclusive: 3.16 µM [inhibitor, partial curve, poor fit] | 
